Measurements as given in PubChem BioAssay AID624417 (National Center for Advancing Translational Sciences (NCATS), 2012).
In all, about 410,000 compounds went through this assay and about 6,400 (1.6%) were called active. This list was built around the results that the source calls inconclusive (neither active nor inactive); the mix of calls is not that of the screen. Calls come from the whole dose curve; as a rule, active = well fitted inhibition curve with a large enough effect; inconclusive = small, poorly fitted or top-dose-only effect; inactive = no such curve, though single readings can be large or run the other way. Potencies beside an inconclusive call are fits to weak or partial responses and may not hold up.

target: Glucagon-like peptide 1 receptor (Homo sapiens) (UniProt P43220); test: qHTS of GLP-1 Receptor Inverse Agonists (Inhibition Mode); details: HEK293 GLP-1R CRE-luciferase, luminescence, 24 h, GLP-1R form is constitutively active; series mostly up to 38.3 µM; note: nearly all actives have a fitted effect of over 55% in size
UniProt P43220, sequence (P43220 whole entry, looked up): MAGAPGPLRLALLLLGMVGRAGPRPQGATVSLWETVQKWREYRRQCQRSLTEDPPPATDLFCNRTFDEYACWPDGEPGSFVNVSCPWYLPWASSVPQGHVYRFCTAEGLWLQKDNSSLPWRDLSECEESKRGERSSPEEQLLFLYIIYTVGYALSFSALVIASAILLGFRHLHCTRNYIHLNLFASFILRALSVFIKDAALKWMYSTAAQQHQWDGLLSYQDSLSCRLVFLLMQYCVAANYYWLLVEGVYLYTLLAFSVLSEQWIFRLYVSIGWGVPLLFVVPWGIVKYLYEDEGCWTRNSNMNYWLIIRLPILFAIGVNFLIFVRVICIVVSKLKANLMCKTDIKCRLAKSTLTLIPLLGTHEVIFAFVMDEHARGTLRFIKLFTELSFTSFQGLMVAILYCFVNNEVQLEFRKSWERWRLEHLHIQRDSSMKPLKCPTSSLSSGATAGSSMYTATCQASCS
Summary of the method: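 Inverse agonism was detected as reduced cAMP-driven luciferase luminescence after 24 h compound treatment. The cells were HEK293 clones expressing constitutively active human GLP-1R with the reporter. Reporter-only and GPR119 cell lines served as counterscreen controls.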
Potency is the fitted concentration of half-maximal effect; tags give direction and shape of the fitted curve.

Potency, inactive:
CCOc1ccc(NC(=O)c2ccc(NC(=O)CCS(=O)(=O)c3cccs3)cc2)cc1
Cc1cc(=O)oc2c(CN(CC(C)C)CC(C)C)c(O)ccc12
COc1ccccc1OC(C)C(=O)N1CCc2ccccc21 (stereo not given)
COc1ccc(/C=C(\C#N)c2nc(-c3cc(Cl)ccc3OC)cs2)cc1
Cc1ccc(OCC(=O)N(Cc2ccco2)C2CCS(=O)(=O)C2)cc1C (stereo not given)
COC(=O)c1ccc(Cl)cc1NC(=O)N1CC=C(c2c[nH]c3ccccc23)CC1
COc1ccc(-c2nc(C)c(CCNC(=O)c3cccc(C)c3)s2)cc1OC
CCOc1ccc(C2C(C(=O)Nc3ccc(C)cc3C)=C(C)Nc3c(C(=O)Nc4ccc(C)cc4)cnn32)cc1OC (stereo not given)
O=C(C1CC1)N(CCc1ccccc1)Cc1nc2ccccc2c(=O)[nH]1
COc1ccc(-c2nc3c(C#N)c[nH]n3c2NC2CCCCC2)cc1
CCNC(=O)C(C)Oc1ccc(Cl)cc1Cl (stereo not given)
CCOC(=O)c1c(C)[nH]c(C)c1S(=O)(=O)NC(C)Cc1ccco1 (stereo not given)
Cc1ccc(S(=O)(=O)N/N=C2/CC(=O)CC(C)(C)C2)cc1[N+](=O)[O-]
C=Cc1ccc(Cn2c(C(=O)O)c(CNCc3cc(OC)ccc3OC)c3ccc(C)cc32)cc1

Potency, active:
Cc1cc2cc(CNC(=S)Nc3ccc(OC(F)(F)F)cc3)ccc2[nH]1 11.2 µM
Cc1cc(C(C)(C)C)ccc1OCCOCCN1CCCC1 12.6 µM

Potency, inconclusive:
CC(C)[C@H](NS(=O)(=O)c1ccccc1)C(=O)OCc1cc([N+](=O)[O-])cc2c1OCOC2 11.2 µM [inhibitor, partial curve, poor fit]
O=C(NC(=S)NCCc1ccccc1)c1cccc(Cl)c1 3.16 µM [inhibitor, partial curve, poor fit]
CCn1ccnc1CN1CCCC(C(=O)c2ccc3cc(OC)ccc3c2)C1 (stereo not given) 5.62 µM [inhibitor, full curve, poor fit]
c1ccc(-c2nc3ccccc3[nH]2)nc1 28.2 µM [inhibitor, single point]
Cc1cccc(N2CCN(C(=O)c3c(-c4ccccc4)noc3C)CC2)c1C 1.58 µM [inhibitor, full curve, poor fit]
Cc1[nH]c2ccc(-c3nnc(SCC(=O)NCc4ccco4)n3Cc3ccccc3)cc2c1C 22.4 µM [inhibitor, single point]
O=C(Nc1ccc(Br)c(Cl)c1)c1ccco1 28.2 µM [inhibitor, single point]
COc1ccccc1C(=O)NCCSCc1ccccc1Cl 10 µM [inhibitor, single point]
N#CC(C#N)=C(N)CSc1cccc[n+]1[O-] 28.2 µM [inhibitor, single point]
O=C(CSCC(=O)Nc1cccc2ccccc12)Nc1cccc2ccccc12 25.1 µM [inhibitor, single point]
O=C(CSc1nc2ccccc2n1Cc1ccccc1Cl)N/N=C/c1ccccc1C(=O)O 31.6 µM [inhibitor, single point]
COc1cc(NC(=O)c2ccc(C(C)(C)C)cc2)c(OC)cc1NC(=O)CN1CCCCC1 0.355 µM [inhibitor, full curve, poor fit]
CCN(CC)c1nc(-c2ccc(C(C)(C)C)cc2)nc2ccccc12 1.78 µM [inhibitor, full curve, poor fit]
FC(F)(F)c1cccc(N2CCN(Cc3ccoc3)CC2)c1 0.501 µM [inhibitor, full curve, poor fit]
COc1ccccc1N1CCN(C(=O)c2c(-c3ccccc3Cl)noc2C)CC1 3.16 µM [inhibitor, partial curve, poor fit]
Cc1ccc(C(=O)C[n+]2cc(-c3ccccc3)n3c2CCCCC3)cc1 11.2 µM [inhibitor, single point]
COc1ccc(N2CCN(C(=O)c3cc4c(-c5ccccc5F)nn(C)c4s3)CC2)cc1 28.2 µM [inhibitor, single point]
COc1ccc(OC)c(NC2=C(c3ccccc3)C(=O)c3ccccc32)c1 0.891 µM [inhibitor, full curve, poor fit]
N#Cc1nc(COc2ccccc2F)oc1N1CCCCCC1 28.2 µM [inhibitor, single point]
CC1CCN(C(=S)Nc2ccc(SC(F)F)cc2)CC1 12.6 µM [inhibitor, partial curve, poor fit]
Cc1ccc(/C=N/Nc2ccc(Cl)c(C(=O)O)c2)s1 14.1 µM [inhibitor, single point]
COc1cc(N2C(=O)C=CC2=O)c(OC)cc1Cl 8.91 µM [inhibitor, partial curve]
COc1ccccc1NS(=O)(=O)c1cccc(NC(=O)NC2CCCCC2)c1 0.794 µM [inhibitor, full curve, poor fit]
NNC(=O)c1[nH]c2ccc([N+](=O)[O-])cc2c1-c1ccccc1 2.82 µM [inhibitor, full curve]
O=c1nc2sc3ccccc3n2c(=O)n1-c1cccc(Cl)c1 10 µM [inhibitor, single point]
O=C(c1ccc(Cl)cc1)N1N=CCC1(O)c1ccc(Cl)cc1 (stereo not given) 11.2 µM [inhibitor, partial curve, poor fit]
O=S(=O)(c1ccc(OC(F)(F)F)cc1)N1CCC(O)(c2cccc(C(F)(F)F)c2)CC1 8.91 µM [inhibitor, partial curve, poor fit]
COc1ccc2nc(NCc3ccc(OC)c(OC)c3OC)sc2c1 8.91 µM [inhibitor, partial curve, poor fit]
CC1(C(=O)NCc2ccccc2Br)CCN1Cc1ccc(-c2ccccc2)o1 (stereo not given) 12.6 µM [inhibitor, partial curve, poor fit]
O=C(NCC1CCCC(CNC(=O)N2CCc3ccccc32)C1)N1CCc2ccccc21 (stereo not given) 31.6 µM [inhibitor, single point]
CC(=O)NC(C)(c1ccccc1)c1nc(-c2csc3ccccc23)cs1 (stereo not given) 11.2 µM [inhibitor, single point]
O=C(CCC(=O)N1Cc2ccccc2Oc2ncccc21)Nc1ccc(Cl)cc1 22.4 µM [inhibitor, single point]
O=C(OC1CCc2ccccc2C1=O)c1ccccc1O (stereo not given) 10 µM [inhibitor, partial curve, poor fit]
OC[C@@H]1[C@@H](c2ccc(Cl)cc2)C(c2cccc(Cl)c2)=NN1c1ccccc1 28.2 µM [inhibitor, single point]
CC(C)CNS(=O)(=O)c1ccc(CC(C)C)cc1 12.6 µM [inhibitor, partial curve, poor fit]
O=C(NC1CCCCC1)C(c1ccc2ncccc2c1)N(Cc1cccs1)C(=O)c1cccs1 (stereo not given) 28.2 µM [inhibitor, single point]
CCOC(=O)Cc1csc(NC(=O)CCSc2ccccc2)n1 8.91 µM [inhibitor, partial curve, poor fit]
Cc1ccc(NC(=O)NN(C)c2c(Cl)c(Cl)nn2C)cc1 12.6 µM [inhibitor, single point]
CC1(C)CC(=O)C2=C(C1)NC(SCC(N)=O)=C(C#N)C21CCCCC1 11.2 µM [inhibitor, single point]
O=C(Nc1ccccc1O)/C(=C\c1ccccc1)NC(=O)c1ccccc1 28.2 µM [inhibitor, single point]
COc1cc(C(=O)NCC(c2ccco2)N2CCCC2)ccc1OCc1ccc(Cl)cc1Cl (stereo not given) 14.1 µM [inhibitor, partial curve, poor fit]
O=C(N/N=C\c1ccc(COc2ccc([N+](=O)[O-])cc2)o1)c1ccc(Cl)cc1 28.2 µM [inhibitor, single point]
O=C(NNc1ccccc1)C(CCO)C(=O)NNc1ccccc1 0.501 µM [inhibitor, full curve, poor fit]
CCSc1nc2sc3c(c2c(=O)n1-c1ccccc1)CCN(C(C)C)C3 2.51 µM [inhibitor, full curve]
CC(NC(=O)c1ccc(C(C)(C)C)cc1)C(c1cccs1)N1CCOCC1 (stereo not given) 8.91 µM [inhibitor, partial curve, poor fit]
COc1ccc(C(=O)Oc2c(Sc3ccc(C)cc3)c(C)nn2C(C)(C)C)c(OC)c1 14.1 µM [inhibitor, partial curve, poor fit]
CCCc1nc2c3ccccc3ccn2c1Cc1ccc(OC)cc1C 10 µM [inhibitor, single point]
CN1CCN(c2ccc(NC(=O)N3CCc4ccccc43)cc2)CC1 4.47 µM [inhibitor, full curve, poor fit]
Cc1ccc2cc(CCNC(=O)c3c(-c4ccccc4Cl)noc3C)c(=O)[nH]c2c1 6.31 µM [inhibitor, partial curve]
